Counter-ions that a name gives are not always drawn. The list shows a part of the results. Single values are uncertain, as repeats are few or missing.
How the values were obtained:
[1] = system: H9 teratoma-derived LAM model cells, TSC2-/-; test: percent SyTOX+ dead cells; higher = more cytotoxic; conditions: 5 µM, treatment time 72 h, culture: 3D hyaluronic acid hydrogel
[2] = system: H9 teratoma-derived LAM model cells, WT; test: percent SyTOX+ dead cells; higher = more cytotoxic; conditions: 5 µM, treatment time 72 h, culture: 3D hyaluronic acid hydrogel, genotype: WT
[3] = system: H9 teratoma-derived LAM model cells, TSC2-/-; test: percent of cells invaded past median invasion distance of vehicle control; LAM is lymphangioleiomyomatosis; the cells come from teratomas of the human stem cell line H9; higher = more invasion; extreme values may be limits of the assay; conditions: 5 µM, treatment time 72 h, culture: 3D hyaluronic acid hydrogel
[4] = system: H9 teratoma-derived LAM model cells, WT; test: as above; conditions: 5 µM, treatment time 72 h, culture: 3D hyaluronic acid hydrogel, genotype: WT
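Throughout, for percent SyTOX+ dead cells: cells seeded atop a hyaluronic acid gel crosslinked via MMP-cleavable peptides, containing vitronectin peptides and methylcellulose, imaged live by high-content microscopy with automated analysis, one technical replicate per compound.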
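Throughout, for percent of cells invaded past median invasion distance of vehicle control: live cells imaged by high content microscopy and scored with in-house automated image analysis, one technical replicate per compound in each genotype and rapamycin condition.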

Row | Structure (SMILES) | percent SyTOX+ dead cells ([1]; rapamycin 0 nM) [%] | percent SyTOX+ dead cells ([1]; rapamycin 20 nM) [%] | percent SyTOX+ dead cells ([2]; rapamycin 0 nM) [%] | percent SyTOX+ dead cells ([2]; rapamycin 20 nM) [%] | percent ([3]; rapamycin 0 nM) [%] | percent ([3]; rapamycin 20 nM) [%] | percent ([4]; rapamycin 0 nM) [%] | percent ([4]; rapamycin 20 nM) [%]
1 | CCOc1ccc(Nc2nc(-c3c(C)nc4ccccn34)cs2)cc1 [SHH Antagonist, JK 184] | 29.8 | 32.1 | 62.6 | 30 | 66.2 | 59.5 | 9.52 | 4.29
2 | Cc1[nH]c(/C=C2\C(=O)Nc3ccccc32)c(C)c1CCC(=O)O [SU-6668, TSU-68, Orantinib] | 55.6 | 56 | 51.8 | 55.3 | 33.1 | 10.7 | 0.72 | 0
3 | Cc1ccccc1C(C(=O)NC1CCCCC1)N(C(=O)Cn1ccnc1C)c1cccc(F)c1 (stereo not given) | 25.1 | 17.6 | 18.9 | 22.9 | 51 | 13.7 | 43.6 | 41.1
4 | Cn1cc(-c2cnc3ccc4ccc(CS(=O)(=O)NCc5ccccn5)cc4c(=O)c3c2)cn1 | 7.07 | 2 | 9.74 | 15.5 | 62.1 | 81 | 53.7 | 48.1
5 | COc1ccc(-c2nc(N3CCOCC3)c3sc(CN(C)c4ncc(C(=O)NO)cn4)cc3n2)cn1 | 14 | 14.5 | 14.7 | 13.4 | 60.7 | 33.4 | 43.9 | 34.6
6 | O=C(c1cc(Cc2n[nH]c(=O)c3ccccc23)ccc1F)N1CCN(C(=O)C2CC2)CC1 | 17.2 | 18.6 | 16.4 | 12.4 | 21.9 | 22.2 | 59.4 | 65.4
7 | CC(/C=C/C(=O)NO)=C\[C@@H](C)C(=O)c1ccc(N(C)C)cc1 [Trichostatin A, TSA, Tricostatin A] | 22.4 | 35 | 38 | 24.6 | 74.5 | 10.2 | 68 | 32.8
8 | Cc1ccc(NC(=O)CCCCCC(=O)Nc2ccccc2N)cc1 | 7.93 | 6.9 | 8.52 | 8.02 | 50 | 51.3 | 55.7 | 46
9 | Cc1ccc([N+](=O)[O-])cc1S(=O)(=O)N(C)/N=C/c1cnc2ccc(Br)cn12 [PIK-75 hydrochloride] | 31.2 | 34 | 20.6 | 28.9 | 0 | 0 | 0 | 0
10 | CCN(CC)CCOC(=O)c1ccc(N)cc1 [Procaine hydrochloride] | 13.2 | 8.17 | 8 | 13.4 | 39 | 35 | 15.6 | 22.6
11 | COc1cc2/c(=N/c3ccc(Br)cc3F)nc[nH]c2cc1OCC1CCN(C)CC1 [Vandetanib, Zactima, ZD6474, AZD-6474] | 20.2 | 28.4 | 31.4 | 24.8 | 15.4 | 16.5 | 1.9 | 3.15
12 | CCN(CC)CC1CCN(c2ncc3ncnc(Nc4ccc(F)c(Cl)c4)c3n2)CC1 [BIBU 1361 dihydrochloride] | 29.5 | 21.3 | 31.2 | 21.6 | 25.1 | 17.4 | 13.9 | 7.02
13 | CN(c1ncccc1CNc1nc(Nc2ccc3c(c2)CC(=O)N3)ncc1C(F)(F)F)S(C)(=O)=O | 35.2 | 33.2 | 34.9 | 35 | 43.4 | 48.2 | 24 | 33.1
14 | O=C(c1cn(Cc2cncn2Cc2ccc(Br)cc2)cc1-c1cccc2ccccc12)N1CCOCC1 | 14.8 | 15.8 | 13.2 | 15.2 | 58.8 | 47.2 | 68.7 | 50.2
15 | CC(C)c1ccc(C(=O)c2cccs2)c(SCCCCCCCCN(C)C)n1 | 26.2 | 22.1 | 32.5 | 29 | 72.9 | 50.4 | 33.5 | 26.1
16 | CN(c1ccccc1CNc1nc(Nc2ccc3c(c2)CC(=O)N3)ncc1C(F)(F)F)S(C)(=O)=O | 34.1 | 22.4 | 37 | 38.1 | 31.7 | 98.8 | 24 | 47
17 | O=C1NCc2c1c1c3ccccc3[nH]c1c1[nH]c3ccccc3c21 [K-252c, Staurosporine Aglycone] | 21.4 | 17.6 | 27.8 | 34.2 | 3.57 | 5.6 | 7.41 | 1.8
18 | CCNC(=O)Nc1ccc(Oc2ncnc(N)c2/C=N/OC)cc1Cl | 5.38 | 1.04 | 8.63 | 10 | 73.5 | 66.3 | 47.7 | 28
19 | O=C(NC1CCNCC1)c1[nH]ncc1NC(=O)c1c(Cl)cccc1Cl [AT-7519 hydrochloride, AT7519 hydrochloride] | 36.2 | 25.8 | 47 | 30.5 | 13.1 | 14.7 | 5.73 | 1.3
20 | O=C(/C=C/c1ccc(CN(CCO)CCc2c[nH]c3ccccc23)cc1)NO [LAQ824, LAQ-824, NVP-LAQ-824, Dacinostat] | 36.5 | 23.6 | 28.6 | 5.7 | 5.03 | 2.95 | 0 | 0.26
21 | Nc1nc(F)nc2c1ncn2[C@@H]1O[C@H](CO)[C@@H](O)[C@@H]1O | 12.1 | 13.3 | 17.9 | 12 | 37.9 | 40.5 | 39.5 | 38
22 | COc1cc2ncnc(Nc3ccc(O)c(Br)c3)c2cc1OC | 14.8 | 20 | 24.9 | 25.6 | 19.9 | 10.8 | 23.4 | 8.81
23 | Cc1[nH]c(/C=C2\C(=O)Nc3ccc(S(=O)(=O)N(C)c4cccc(Cl)c4)cc32)c(C)c1C(=O)N1CCN(C)CC1 | 71.8 | 69.8 | 53.9 | 42.7 | 2.29 | 2.33 | 4.9 | 3.51

Row | Structure (SMILES) | percent SyTOX+ dead cells ([1]; rapamycin 0 nM) [%] | percent SyTOX+ dead cells ([1]; rapamycin 20 nM) [%] | percent SyTOX+ dead cells ([2]; rapamycin 0 nM) [%] | percent SyTOX+ dead cells ([2]; rapamycin 20 nM) [%] | percent ([3]; rapamycin 0 nM) [%] | percent ([3]; rapamycin 20 nM) [%] | percent ([4]; rapamycin 0 nM) [%] | percent ([4]; rapamycin 20 nM) [%]
24 | CCc1cc(Nc2nccc(-c3c(-c4ccc(OC)c(C(=O)Nc5c(F)cccc5F)c4)nc4ccccn34)n2)c(OC)cc1N1CCC(N2CCN(S(C)(=O)=O)CC2)CC1 | 4.47 | 5.03 | 10.8 | 7.99 | 21.1 | 19.6 | 6.09 | 17.7
25 | Cc1c(NC(=O)OC[C@@H]2COCCN2)cn2ncnc(Nc3ccc4c(cnn4Cc4cccc(F)c4)c3)c12 | 9.62 | 11.4 | 20 | 11.8 | 19.2 | 19.2 | 15.5 | 16
26 | Cc1cc(NC(=O)Nc2ccc(N(C)C)cc2)c2cc(F)cc(F)c2n1 | 12.5 | 10.4 | 7.88 | 5.05 | 33.5 | 20.3 | 35.2 | 53
27 | Nc1cccc2c(=O)[nH]ccc12 [5-AIQ hydrochloride] | 11.1 | 11.4 | 7.89 | 8.24 | 42 | 45.3 | 47.3 | 54.3
28 | CN1CCN(c2ccc3nc(-c4c(N)c5c(F)cccc5[nH]c4=O)[nH]c3c2)CC1 [Dovitinib, CHIR-258, TKI-258, GFKI-258] | 39.8 | 30.6 | 62.6 | 49.8 | 12.3 | 9.09 | 3.87 | 3.2
29 | Nc1ccccc1NC(=O)c1ccc(CNc2nccc(-c3cccnc3)n2)cc1 [MGCD0103, MGCD-0103, MG-0103, Mocetinostat] | 39.8 | 32.5 | 32.2 | 27.1 | 9.14 | 9.64 | 0 | 12.4
30 | Fc1ccc(Cl)cc1-c1nc(Nc2ccncc2)c2nccnc2n1 | 9.42 | 12.1 | 17.7 | 17.4 | 40.8 | 22.1 | 23.2 | 27.5
31 | O=C(O)c1cc(N(Cc2ccccc2O)Cc2cc(O)ccc2O)ccc1O | 12.5 | 11.8 | 6.47 | 6.84 | 32.2 | 18.3 | 31.4 | 19.5
32 | COc1ccc(Cl)cc1NC(=O)Nc1cc(C)nc2ccccc12 | 11.9 | 11.4 | 11.8 | 11.9 | 67.3 | 61.4 | 44.1 | 43
33 | O=C(Nc1ccc(OC(F)(F)F)cc1)c1sccc1NCc1ccnc2ccccc12 | 6.64 | 11.3 | 36.9 | 26 | 84.8 | 56.8 | 59.6 | 7.29
34 | Cc1ccccc1C(=O)c1ccc(Nc2ccc(Br)cc2N)cc1Cl | 18.7 | 11.2 | 16.3 | 29.4 | 17.4 | 20.1 | 10.6 | 8.54
35 | Nc1ncnc2c1c(I)cn2[C@@H]1O[C@H](CO)[C@@H](O)[C@H]1O [5-Iodotubercidin] | 39.1 | 18.1 | 54.8 | 29.2 | 4.65 | 12.6 | 3.92 | 13.6
36 | O=c1oc2c(O)c(O)cc3c(=O)oc4c(O)c(O)cc1c4c23 [Ellagic acid] | 4.07 | 8.78 | 7.14 | 11.9 | 16.3 | 11.3 | 24.8 | 19.4
37 | CNc1nccc(-c2cccnc2Oc2cc(C(=O)Nc3cccc(C(F)(F)F)c3)ccc2C)n1 | 8.76 | 3.65 | 32.2 | 31.4 | 16.6 | 31.2 | 12.2 | 21.6
38 | NC(=O)c1ccc2[nH]ccc2c1 | 4.78 | 5.33 | 17.9 | 18.2 | 54.5 | 34.3 | 39.6 | 37.1
39 | Cc1cc2c(s1)c1cnn(Cc3ccccc3F)c(=O)c1n2C | 5.13 | 16 | 6.08 | 11.4 | 63 | 31.5 | 12.5 | 33.5
40 | Cc1cc(C(=O)Nc2cc(Nc3ccc4c(/C=C/c5ccccn5)n[nH]c4c3)ccc2F)n(C)n1 | 38.1 | 15 | 62.1 | 50.4 | 17.7 | 14.5 | 0 | 7.83
41 | COc1cc([C@@H]2c3cc4c(cc3[C@@H](O[C@@H]3O[C@@H]5CO[C@@H](c6cccs6)O[C@H]5[C@H](O)[C@H]3O)[C@H]3COC(=O)[C@H]23)OCO4)cc(OC)c1O [Teniposide; VM-26; Vumon; Podophyllotoxins] | 7.75 | 9.52 | 7.2 | 10 | 46.8 | 34.8 | 33.1 | 35.6
42 | Oc1c2ccccc2c2c3c(cccc13)N=N2 | 9.77 | 15.1 | 35.8 | 23.9 | 7.52 | 46.8 | 0 | 2.65
43 | c1cc(OCCN2CCCCC2)cc(-c2n[nH]c3ccc(-c4nnc[nH]4)cc23)c1 | 9.19 | 2.02 | 16.9 | 12.4 | 24.1 | 6.45 | 11.2 | 7.76
44 | Nc1cc(C(F)(F)F)c(-c2cc(N3CCOCC3)nc(N3CCOCC3)n2)cn1 | 29.6 | 23.6 | 44.4 | 40.4 | 0.93 | 45.1 | 5.33 | 14
45 | C/C(=N\N=C(N)N)c1ccc(NC(=O)Nc2ccc(/C(C)=N/N=C(N)N)cc2)cc1 | 6.57 | 21.7 | 11.2 | 12.6 | 20.9 | 8.24 | 38.4 | 16.1
